Experimental data from the supplement of paper PMC8728848.
Some of the results follow.

Columns and labels:
Test in all cases: glycan array binding signal (z-score within array); higher = stronger binding
Conditions in all cases: glycan notation: IUPAC condensed, linker removed
[1] = target: Man(a1-2)Man(a1-2)Man(a1-3)Man
How it was run: (§1)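 The Consortium for Functional Glycomics database supplied 3228 glycan arrays, of which those lacking an available protein sequence were dropped. The binding signal, a within-array Z-score, was averaged across arrays of the same protein sequence and across linkers. Negative scores can be read as non-binding.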

[2] = target: Man(a1-2)Man(a1-2)Man(a1-6)[Man(a1-3)]Man
How it was run: as §1

Man(a1-2)Man(a1-3)Man = target: Man(a1-2)Man(a1-3)Man
How it was run: as §1

[3] = target: Man(a1-2)Man(a1-3)[Man(a1-2)Man(a1-6)]Man
How it was run: as §1

[4] = target: Man(a1-2)Man(a1-3)[Man(a1-2)Man(a1-6)]Man(a1-6)[Man(a1-2)Man(a1-2)Man(a1-3)]Man
How it was run: as §1

[5] = target: Man(a1-2)Man(a1-3)[Man(a1-2)Man(a1-6)]Man(a1-6)[Man(a1-2)Man(a1-2)Man(a1-3)]Man(b1-4)GlcNAc(b1-4)GlcNAc
How it was run: as §1

[6] = target: Man(a1-2)Man(a1-3)[Man(a1-6)]Man(a1-6)[Man(a1-2)Man(a1-3)]Man(b1-4)GlcNAc(b1-4)GlcNAc
How it was run: as §1

[7] = target: Man(a1-2)Man(a1-6)[Man(a1-3)]Man(a1-6)[Man(a1-2)Man(a1-2)Man(a1-3)]Man
How it was run: as §1

[8] = target: Man(a1-2)Man(a1-6)[Man(a1-3)]Man(a1-6)[Man(a1-2)Man(a1-2)Man(a1-3)]Man(b1-4)GlcNAc(b1-4)GlcNAc
How it was run: as §1

Man(a1-3)[Man(a1-6)]Man = target: Man(a1-3)[Man(a1-6)]Man
How it was run: as §1

[9] = target: Man(a1-3)[Man(a1-6)]Man(a1-6)[Man(a1-2)Man(a1-3)]Man(b1-4)GlcNAc(b1-4)GlcNAc
How it was run: as §1

[10] = target: Man(a1-3)[Man(a1-6)]Man(a1-6)[Man(a1-3)]Man
How it was run: as §1

[11] = target: Man(a1-3)[Man(a1-6)]Man(a1-6)[Man(a1-3)]Man(b1-4)GlcNAc(b1-4)GlcNAc
How it was run: as §1

[12] = target: Man(a1-3)[Man(a1-6)]Man(b1-4)GlcNAc(b1-4)GlcNAc
How it was run: as §1

[13] = target: Man(a1-3)[Man(a1-6)]Man(b1-4)GlcNAc(b1-4)[Fuc(a1-6)]GlcNAc
How it was run: as §1

Man(a1-6)Man = target: Man(a1-6)Man
How it was run: as §1

Man(b1-4)GlcNAc = target: Man(b1-4)GlcNAc
How it was run: as §1

MurNAc(b1-4)GlcNAc = target: MurNAc(b1-4)GlcNAc
How it was run: as §1

Neu5Ac(a2-3)Gal = target: Neu5Ac(a2-3)Gal
How it was run: as §1

[14] = target: Neu5Ac(a2-3)Gal(b1-3)GalNAc
How it was run: as §1

[15] = target: Neu5Ac(a2-3)Gal(b1-3)GalNAc(b1-3)Gal(a1-4)Gal(b1-4)Glc
How it was run: as §1

[16] = target: Neu5Ac(a2-3)Gal(b1-3)GalNAc(b1-3)Gal(b1-4)GlcNAc
How it was run: as §1

[17] = target: Neu5Ac(a2-3)Gal(b1-3)GalNAc(b1-4)[Neu5Ac(a2-3)]Gal(b1-4)Glc
How it was run: as §1

[18] = target: Neu5Ac(a2-3)Gal(b1-3)GalNAc(b1-4)[Neu5Ac(a2-8)Neu5Ac(a2-3)]Gal(b1-4)Glc
How it was run: as §1

[19] = target: Neu5Ac(a2-3)Gal(b1-3)GalNAc6S
How it was run: as §1

[20] = target: Neu5Ac(a2-3)Gal(b1-3)GlcNAc
How it was run: as §1

[21] = target: Neu5Ac(a2-3)Gal(b1-3)GlcNAc(b1-2)Man
How it was run: as §1

[22] = target: Neu5Ac(a2-3)Gal(b1-3)GlcNAc(b1-2)Man(a1-3)[GlcNAc(b1-4)][Neu5Ac(a2-3)Gal(b1-3)GlcNAc(b1-2)Man(a1-6)]Man(b1-4)GlcNAc(b1-4)GlcNAc
How it was run: as §1

[23] = target: Neu5Ac(a2-3)Gal(b1-3)GlcNAc(b1-2)Man(a1-3)[Neu5Ac(a2-3)Gal(b1-3)GlcNAc(b1-2)Man(a1-6)]Man(b1-4)GlcNAc(b1-4)GlcNAc
How it was run: as §1

[24] = target: Neu5Ac(a2-3)Gal(b1-3)GlcNAc(b1-2)[Neu5Ac(a2-3)Gal(b1-3)GlcNAc(b1-4)]Man(a1-6)[Neu5Ac(a2-3)Gal(b1-3)GlcNAc(b1-2)Man(a1-3)]Man(b1-4)GlcNAc(b1-4)GlcNAc
How it was run: as §1

[25] = target: Neu5Ac(a2-3)Gal(b1-3)GlcNAc(b1-3)Gal(b1-3)GlcNAc
How it was run: as §1

[26] = target: Neu5Ac(a2-3)Gal(b1-3)GlcNAc(b1-3)Gal(b1-4)GlcNAc
How it was run: as §1

[27] = target: Neu5Ac(a2-3)Gal(b1-3)GlcNAc(b1-3)GalNAc
How it was run: as §1

[28] = target: Neu5Ac(a2-3)Gal(b1-3)GlcNAc(b1-4)Gal(b1-4)Glc
How it was run: as §1

[29] = target: Neu5Ac(a2-3)Gal(b1-3)GlcNAc(b1-6)GalNAc
How it was run: as §1

[30] = target: Neu5Ac(a2-3)Gal(b1-3)GlcNAc6S
How it was run: as §1

[31] = target: Neu5Ac(a2-3)Gal(b1-3)[Fuc(a1-4)]GlcNAc
How it was run: as §1

B1: MGL6A (Homo sapiens) (protein)
chain: MTRTYENFQYLENKVKVQGFKNGPLPLQSLLQRLCSGPCHLLLSLGLGLLLLVIICVVGFQNSKFQRDLVTLRTDFSNFTSNTVAEIQALTSQGSSLEETIASLKAEVEGFKQERQAVHSEMLLRVQQLVQDLKKLTCQVATLNNNGEEASTEGTCCPVNWVEHQDSCYWFSHSGMSWAEAEKYCQLKNAHLVVINSREEQNFVQKYLGSAYTWMGLSDPEGAWKWVDGTDYATGFQNWKPGQPDDWQGHGLGGGEDCAHFHPDGRWNDDVCQRPYHWVCEAGLGQTSQESH
[1]
  glycan array binding signal (z-score): -0.301
[2]
  glycan array binding signal (z-score): -0.283
Man(a1-2)Man(a1-3)Man
  glycan array binding signal (z-score): -0.155
[3]
  glycan array binding signal (z-score): -0.261
[4]
  glycan array binding signal (z-score): -0.231
[5]
  glycan array binding signal (z-score): -0.153
[6]
  glycan array binding signal (z-score): -0.224
[7]
  glycan array binding signal (z-score): -0.288
[8]
  glycan array binding signal (z-score): -0.211
Man(a1-3)[Man(a1-6)]Man
  glycan array binding signal (z-score): -0.22
[9]
  glycan array binding signal (z-score): -0.017
[10]
  glycan array binding signal (z-score): -0.286
[11]
  glycan array binding signal (z-score): -0.322
[12]
  glycan array binding signal (z-score): -0.224
[13]
  glycan array binding signal (z-score): -0.253
Man(a1-6)Man
  glycan array binding signal (z-score): -0.275
Man(b1-4)GlcNAc
  glycan array binding signal (z-score): -0.258
MurNAc(b1-4)GlcNAc
  glycan array binding signal (z-score): -0.247
Neu5Ac(a2-3)Gal
  glycan array binding signal (z-score): -0.26
[14]
  glycan array binding signal (z-score): -0.01
[15]
  glycan array binding signal (z-score): -0.292
[16]
  glycan array binding signal (z-score): -0.144
[17]
  glycan array binding signal (z-score): -0.142
[18]
  glycan array binding signal (z-score): -0.24
[19]
  glycan array binding signal (z-score): -0.328
[20]
  glycan array binding signal (z-score): -0.268
[21]
  glycan array binding signal (z-score): -0.281
[22]
  glycan array binding signal (z-score): -0.268
[23]
  glycan array binding signal (z-score): -0.272
[24]
  glycan array binding signal (z-score): -0.268
[25]
  glycan array binding signal (z-score): -0.29
[26]
  glycan array binding signal (z-score): -0.262
[27]
  glycan array binding signal (z-score): -0.273
[28]
  glycan array binding signal (z-score): -0.286
[29]
  glycan array binding signal (z-score): 3.45
[30]
  glycan array binding signal (z-score): -0.25
[31]
  glycan array binding signal (z-score): -0.286
